PMC12406258, “Uncovering the Unusual Inhibition Mechanism of a Trypanosome Alternative Oxidase Inhibitor Displaying Broad-Spectrum Activity against African Animal Trypanosomes” (Journal of Medicinal Chemistry, 2025)

Assay: Pretoxicity study in uninfected mice
Settings: cumulative dose of 8 mg/kg (i.p.)

Q: For `Cc1cc(O)ccc1C(=O)OCCCCCCCCCCCCCC[P+](c1ccccc1)(c1ccccc1)c1ccccn1.[Br-]` [Compound 1, {14-[(4-Hydroxy-2-methylbenzoyl)-oxy]-tetradecyl}-diphenyl(pyridin-2-yl)-Phosphonium Bromide], which “Toxicity to uninfected mice” value is on record?
A: Its value is “not toxic”.
